Assay results as given in the supplement of paper PMC4967469.
By IC50 is meant the dose at which the fit gives 50% viability; a limit (>, <) means that the fit lies beyond the doses tested. AUC sums up the same curve from the lowest dose to the 256-fold higher top dose; the more sensitive the line, the further below 1. For some assays here: An inferred top dose is not printed in the source and was worked back from the curve model.

Legend:
Assay in all cases: Viability of human cancer cell lines after 72 h of drug (GDSC screen)
FH535 = compound: Cc1cc([N+](=O)[O-])ccc1NS(=O)(=O)c1cc(Cl)ccc1Cl [FH535]; details: top dose 32 µM; top dose inferred
Method: (§1)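 Human cancer cell lines in 384-well plates, medium with 10% serum, drug for 72 h over a 256-fold dose range (nine 2-fold or five 4-fold steps up to the top dose). Adherent lines were fixed and stained with the nucleic acid dye Syto60, suspension lines read with resazurin; signal relative to control wells, capped at 0 and 100%. One two-parameter sigmoid per drug and line, fitted in a mixed model over all curves with the slope shared within a line.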

Dasatinib = compound: Cc1nc(Nc2ncc(C(=O)Nc3c(C)cccc3Cl)s2)cc(N2CCN(CCO)CC2)n1 [Dasatinib]; details: top dose 1.28 µM
Method: as §1

A-443654 = compound: Cc1n[nH]c2ccc(-c3cncc(OC[C@@H](N)Cc4c[nH]c5ccccc45)c3)cc12 [A-443654]; details: top dose 1.024 µM; top dose inferred
Method: as §1

AT-7519 = compound: O=C(NC1CCNCC1)c1n[nH]cc1NC(=O)c1c(Cl)cccc1Cl [AT-7519]; details: top dose 10.24 µM; top dose inferred
Method: as §1

XMD14-99 = compound: COc1cc(N2CCN(C)CC2)ccc1Nc1nc(N)c(C(=O)c2c(Cl)cccc2Cl)s1 [XMD14-99]; details: top dose 10.24 µM; top dose inferred
Method: as §1

Sorafenib = compound: CNC(=O)c1cc(Oc2ccc(NC(=O)Nc3ccc(Cl)c(C(F)(F)F)c3)cc2)ccn1 [Sorafenib]; details: top dose 4 µM
Method: as §1

| Cell Line | AUC (FH535) | IC50 (FH535) | AUC (Dasatinib) | IC50 (Dasatinib) | AUC (A-443654) | IC50 (A-443654) | AUC (AT-7519) | IC50 (AT-7519) | AUC (XMD14-99) | IC50 (XMD14-99) | AUC (Sorafenib) | IC50 (Sorafenib) |
| --- | --- | --- | --- | --- | --- | --- | --- | --- | --- | --- | --- | --- |
| LS-513 (large intestine, adherent) | 0.8 | 16.2 µM | 0.96 | > 1.28 µM | 0.944 | > 1.02 µM | 0.845 | 7.88 µM | 0.98 | > 10.2 µM | 0.954 | > 4 µM |
| IST-MES1 (mesothelioma, adherent) | 0.642 | 4.95 µM | 0.492 | 0.0759 µM | 0.882 | > 1.02 µM | 0.907 | > 10.2 µM | 0.972 | > 10.2 µM | 0.855 | 3.22 µM |
| BE2-M17 (neuroblastoma, adherent) | 0.905 | > 32 µM | 0.899 | > 1.28 µM | 0.771 | 0.404 µM | 0.861 | 9.07 µM | 0.985 | > 10.2 µM | 0.905 | > 4 µM |
| D-283MED (medulloblastoma, adherent) | 0.598 | 3.62 µM | 0.948 | > 1.28 µM | 0.991 | > 1.02 µM | 0.988 | > 10.2 µM | 0.991 | > 10.2 µM | 0.895 | > 4 µM |
| LS-1034 (large intestine, adherent) | 0.653 |  | 0.986 | > 1.28 µM | 0.819 | 0.659 µM | 0.9 | > 10.2 µM | 0.954 | > 10.2 µM | 0.98 | > 4 µM |
| SK-N-DZ (neuroblastoma, adherent) | 0.808 | 16.4 µM | 0.897 | > 1.28 µM | 0.918 | > 1.02 µM | 0.97 | > 10.2 µM | 0.988 | > 10.2 µM | 0.87 | 3.64 µM |
| KNS-81-FD (glioma, adherent) | 0.748 | 13.6 µM | 0.963 | > 1.28 µM | 0.898 | > 1.02 µM | 0.888 | > 10.2 µM | 0.975 | > 10.2 µM | 0.956 | > 4 µM |
| ES1 (Ewing sarcoma, adherent) | 0.8 | 15.2 µM | 0.985 | > 1.28 µM | 0.762 | 0.361 µM | 0.531 | 0.774 µM | 0.916 | > 10.2 µM | 0.863 | 3.37 µM |
| EoL-1-cell (haematopoietic neoplasm, suspension) | 0.652 | 5 µM | 0.026 | < 0.005 µM | 0.63 | 0.139 µM | 0.425 | 0.411 µM | 0.823 | 5.14 µM | 0.975 | > 4 µM |
| DB (B-cell lymphoma, suspension) | 0.635 | 4.97 µM | 0.964 | > 1.28 µM | 0.761 | 0.408 µM | 0.308 | 0.171 µM | 0.875 | > 10.2 µM | 0.875 | > 4 µM |
| SF126 (glioma, adherent) | 0.727 | 9.21 µM | 0.655 | 0.22 µM | 0.738 | 0.319 µM | 0.907 | > 10.2 µM | 0.985 | > 10.2 µM | 0.775 | 1.68 µM |
| GCIY (stomach, adherent) | 0.564 | 3.05 µM | 0.543 | 0.107 µM | 0.729 | 0.316 µM | 0.977 | > 10.2 µM | 0.984 | > 10.2 µM | 0.902 | > 4 µM |
| ALL-PO (lymphoblastic leukaemia, suspension) | 0.533 | 2.47 µM | 0.943 | > 1.28 µM | 0.805 | 0.553 µM | 0.359 | 0.255 µM | 0.909 | > 10.2 µM | 0.261 | 0.0494 µM |
| RF-48 (stomach, adherent) | 0.825 | 22.5 µM | 0.844 | 1.09 µM | 0.692 | 0.238 µM | 0.541 | 0.837 µM | 0.956 | > 10.2 µM | 0.909 | > 4 µM |
| ES8 (Ewing sarcoma, adherent) | 0.621 | 4.18 µM | 0.968 | > 1.28 µM | 0.608 | 0.124 µM | 0.437 | 0.435 µM | 0.895 | > 10.2 µM | 0.844 | 2.56 µM |
| NCI-H69 (small cell lung carcinoma, suspension) | 0.915 | > 32 µM | 0.966 | > 1.28 µM | 0.74 | 0.341 µM | 0.724 | 3.01 µM | 0.954 | > 10.2 µM | 0.961 | > 4 µM |
| EW-16 (Ewing sarcoma, adherent) | 0.639 | 4.94 µM | 0.783 | 0.564 µM | 0.658 | 0.179 µM | 0.588 | 1.13 µM | 0.975 | > 10.2 µM | 0.92 | > 4 µM |
| SK-ES-1 (Ewing sarcoma, semi-adherent) | 0.614 | 4.2 µM | 0.979 | > 1.28 µM | 0.676 | 0.206 µM | 0.657 | 1.8 µM | 0.973 | > 10.2 µM | 0.93 | > 4 µM |
| JJN-3 (haematopoietic neoplasm, suspension) | 0.69 | 6.09 µM | 0.922 | > 1.28 µM | 0.798 | 0.389 µM | 0.7 | 2.07 µM | 0.967 | > 10.2 µM | 0.89 | 3.16 µM |
